{"source": "PubChem BioAssay AID485344", "about": "(National Center for Advancing Translational Sciences (NCATS), 2010)", "note": "In all, about 340,000 compounds went through this assay and about 6,900 (2%) were called active. Cut-off read from the data, not from the text of the source: active = inhibition above about 30%; inactive = below that, where a call was filed. The entries are a selection whose mix differs from that of the whole data set. The source gives no active or inactive call for entries shown without one."}
{"molecular_target": "D(2) dopamine receptor (Homo sapiens) (UniProt P14416)", "sequence (P14416 whole entry, looked up)": "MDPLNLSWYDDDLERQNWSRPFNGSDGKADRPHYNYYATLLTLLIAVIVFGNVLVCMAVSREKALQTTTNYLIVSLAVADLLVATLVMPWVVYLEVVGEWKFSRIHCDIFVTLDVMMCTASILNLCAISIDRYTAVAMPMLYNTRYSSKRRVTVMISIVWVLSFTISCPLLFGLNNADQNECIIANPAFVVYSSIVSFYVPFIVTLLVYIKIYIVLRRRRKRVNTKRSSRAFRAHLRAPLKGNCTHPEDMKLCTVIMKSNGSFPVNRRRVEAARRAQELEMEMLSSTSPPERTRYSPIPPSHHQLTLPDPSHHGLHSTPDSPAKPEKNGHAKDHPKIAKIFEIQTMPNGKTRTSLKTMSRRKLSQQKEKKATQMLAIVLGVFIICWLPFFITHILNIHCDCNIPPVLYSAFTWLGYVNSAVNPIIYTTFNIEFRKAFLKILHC", "assay": "HTS Assay for Allosteric Antagonists of the Human D2 Dopamine Receptor: Primary Screen for Antagonists; note: 0% is about no effect", "details": "HEK293 TREx D2 cells, calcium flux, dopamine EC80; at 10 µM; stronger effect = higher value", "in_short": "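HEK293 T-REx D2 cells, tet-induced, calcium dye no-wash. Cpd pintool add, 180 s kinetic, then EC80 DA, 180 s kinetic. Ca flux read.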"}
{"smiles": "CC(NC(=O)c1ccc2c(c1)N(Cc1ccc(Cl)cc1)C(=O)CS2)c1ccccc1", "note": "(stereo not given)", "inhibition": "-3.46%"}
{"smiles": "CCN(c1cccc(C)c1)S(=O)(=O)c1cc(Br)cc2c1N(C(C)=O)C(C)C2", "note": "(stereo not given)", "inhibition": "-8.01%"}
{"smiles": "CC1CCN(C(=O)CSc2n[nH]c(-c3ccc(F)cc3)n2)CC1", "inhibition": "-15%"}
{"smiles": "CCc1ccc(-n2nnc(-c3nc(-c4cccs4)no3)c2N)cc1", "inhibition": "13.1%"}
{"smiles": "CC(C)OC(=O)c1ccc(Cn2nnc3sc4c(c3c2=O)CCCC4)cc1", "inhibition": "2.09%"}
{"smiles": "CCCN(c1c(C)n(C)n(-c2ccccc2)c1=O)S(=O)(=O)c1ccc(C)cc1", "inhibition": "0.825%"}
{"smiles": "COC(=O)CSc1ncc2c(n1)-c1ccccc1N(Cc1ccc(Cl)cc1)S2(=O)=O", "inhibition": "-4.04%"}
{"smiles": "COc1ccc(CCn2c3c(c(=O)[nH]c2=O)C(NC(=O)c2ccc(Cl)cc2)(C(F)(F)F)C(=O)N3)cc1OC", "note": "(stereo not given)", "inhibition": "3.77%"}
{"smiles": "COc1ccc(CNc2ncnc3c2nc2n3CCCC2)cc1", "inhibition": "7.58%"}
{"smiles": "Cc1cccc(CNC(=O)Cn2c(-c3cccs3)cc3ccccc32)c1", "inhibition": "-3.11%"}
{"smiles": "COc1ccc(NC(=O)c2c(C)oc3ccc(O)c(CN4CCC(C)CC4)c23)cc1Cl", "inhibition": "10.9%"}
{"smiles": "COc1cccc(NC(=O)CN2C(=O)c3cccc4cccc2c34)c1", "inhibition": "-5.92%"}
{"smiles": "Cn1ncc2c(Nc3cc(C(F)(F)F)ccc3Cl)ncnc21", "inhibition": "12.1%"}
{"smiles": "Cc1ccc(-n2ncc(C(=O)N3CCN(c4cc(Cl)ccc4C)CC3)c2C2CCN(C(=O)OC(C)(C)C)CC2)cc1", "inhibition": "13.4%"}
{"smiles": "Cc1ccc(C)c(Cn2c3ccccc3c3cnn(CC(=O)NC(C)CCc4ccccc4)c(=O)c32)c1", "note": "(stereo not given)", "inhibition": "-1.19%"}
{"smiles": "COc1ccc(CCNC(=O)c2ccc3c(c2)N(Cc2ccccc2)C(=O)c2ccccc2S3=O)cc1OC", "note": "(stereo not given)", "inhibition": "4.75%"}
{"smiles": "COC(=O)c1ccc(Cl)cc1NC(=O)Nc1nnc(N2CCCC2)s1", "inhibition": "-6.53%"}
{"smiles": "CCOc1ccc(NC(=O)C(Cc2ccccc2)NS(=O)(=O)c2ccc3c(c2)oc(=O)n3C)cc1", "note": "(stereo not given)", "inhibition": "-19.2%"}
{"smiles": "COc1cc(CO)ccc1Oc1nnnn1-c1ccc(C(N)=O)cc1", "inhibition": "active: 31.1%"}
{"smiles": "COc1ccccc1C(=O)Nc1ccc2nc(SCC(=O)N(C)c3ccccc3)sc2c1", "inhibition": "16.7%"}
{"smiles": "CCS(=O)(=O)c1ncc(N(Cc2ccccc2)Cc2ccco2)c(C(=O)Nc2cccc(Cl)c2C)n1", "inhibition": "10.5%"}
{"smiles": "CCOc1ccc(NC(=O)c2c(Nc3ccccc3C)sc(C(=O)c3ccccc3)c2N)cc1", "inhibition": "-16.7%"}
{"smiles": "O=C(CN1C(=O)C2(SCC(=O)N2c2cccc(Cl)c2)c2ccccc21)NCCc1ccccc1", "note": "(stereo not given)", "inhibition": "-3.14%"}
{"smiles": "CCOc1ccc(CNC(=O)c2ccc3c(c2)c(C)c(C)n3Cc2ccccc2)cc1OC", "inhibition": "-2.69%"}
{"smiles": "Cc1ccc2oc(=O)c3cnn(CC(=O)N4CCN(c5ccc(F)cc5)CC4)c3c2c1", "inhibition": "9.73%"}
{"smiles": "COc1ccc([N+](=O)[O-])cc1NC(=S)NC(NC(=O)C(c1ccccc1)c1ccccc1)C(Cl)(Cl)Cl", "note": "(stereo not given)", "inhibition": "active: 71.3%"}
{"smiles": "Cc1ccc(Nc2c(-c3c[nH]c4ccccc34)nc3ccccn23)cc1", "inhibition": "14.4%"}
{"smiles": "CC(C)Oc1ccccc1-c1nc(SCC(=O)c2ccc(F)cc2)n[nH]1", "inhibition": "6.74%"}
{"smiles": "Cc1ccc(CNC(=O)CSc2nc3c(sc4ccccc43)c(=O)n2CCCOC(C)C)cc1", "inhibition": "2.93%"}
{"smiles": "Cc1ccc(NC(=O)Cn2c(=O)n(Cc3ccccc3)c(=O)c3sc4ccccc4c32)cc1", "inhibition": "-22%"}
{"smiles": "Cc1ccc(-n2c(=O)c3sc4ccccc4c3n(CC(=O)NC3CCCC3)c2=O)cc1C", "inhibition": "-1.4%"}
{"smiles": "COc1ccc(OC)c(CCNC(=O)c2cc3c(s2)-c2c(C)cccc2OC3)c1", "inhibition": "22.7%"}
{"smiles": "Fc1ccc(C(c2nnc(-c3ccccc3)o2)N2CCN(c3cccc(Cl)c3)CC2)cc1", "note": "(stereo not given)", "inhibition": "-4.16%"}
{"smiles": "Cn1c2ccccc2c2cnn(CC(=O)NCCCN3CCCCC3)c(=O)c21", "inhibition": "-3.52%"}
{"smiles": "CCOc1ccc(NC(=O)CSc2cn(CCNC(=O)c3ccccc3F)c3ccccc23)cc1", "inhibition": "2.68%"}
{"smiles": "COc1ccc(CN2C(=O)C(NC(=O)c3cccc(C)c3)(C(F)(F)F)N=C2c2ccccc2)cc1", "note": "(stereo not given)", "inhibition": "4.09%"}
{"smiles": "CCc1ccccc1NC(=O)CSc1nncn2c1cc1oc(C)cc12", "inhibition": "9.26%"}
{"smiles": "Cc1ccc(S(=O)(=O)N2CCC(C(=O)N3CC(C)OC(C)C3)CC2)cc1", "note": "(stereo not given)", "inhibition": "active: 50.5%"}
{"smiles": "O=C(NCCS(=O)(=O)N1CCN(c2ccc(F)cc2)CC1)C(c1ccccc1)c1ccccc1", "inhibition": "17.5%"}
{"smiles": "CC(=O)c1cccc(NC(=O)CSc2nnc3ccc(-c4ccc(Br)cc4)nn23)c1", "inhibition": "15.5%"}
{"smiles": "CCOc1ccccc1NC(=O)CCn1c(-c2ccc(OC)cc2)cc(C(C)=O)c1C", "inhibition": "6.92%"}
{"smiles": "CCOc1ccccc1NC(=O)C(C)Sc1cc(-c2ccccc2)nc(C)n1", "note": "(stereo not given)", "inhibition": "-5.86%"}
{"smiles": "Cc1ccc(NCc2cccn2-c2nnc(N3CCCCCC3)s2)cc1", "inhibition": "1.53%"}
{"smiles": "COc1ccc(-c2nnc(SCC(=O)Nc3cccc(F)c3)s2)cc1", "inhibition": "4.07%"}
{"smiles": "Cn1c(=O)cc(SCC(=O)NCc2ccc(F)cc2)c2ccc(Cl)cc21", "inhibition": "-24.6%"}
{"smiles": "CCCCNC(=O)C1CCN(S(=O)(=O)c2cc(Br)cc3c2N(C(=O)CC)CC3)CC1", "inhibition": "13%"}
{"smiles": "COc1cc(Cl)c(C)cc1NC(=O)CCc1nc2cccnc2n1-c1ccccc1", "inhibition": "8.23%"}
{"smiles": "CC1=C(C(=O)Nc2ccccc2)C(c2ccccc2)n2nc(-c3ccco3)nc2N1", "note": "(stereo not given)", "inhibition": "0.71%"}
{"smiles": "CC(=O)Nc1nnc(SCc2cc(=O)c3cc(C)ccc3[nH]2)s1", "inhibition": "-2.07%"}
{"smiles": "COc1ccc(NC(=O)Cn2c(SCc3cccc(Cl)c3)nc3ccncc32)c(OC)c1OC", "inhibition": "-11.1%"}
{"smiles": "Nc1nc(-c2ccc(Cl)cc2)cn1N", "inhibition": "active: 30.2%"}
{"smiles": "Cc1ccc(S(=O)(=O)N(C)C)cc1NC(=O)COC(=O)c1n[nH]c(=O)c2ccccc12", "inhibition": "active: 51.7%"}
{"smiles": "COc1ccccc1CNC(=O)C(=O)NCC(c1cccs1)S(=O)(=O)c1ccc(F)cc1", "note": "(stereo not given)", "inhibition": "-4.81%"}
{"smiles": "CC1=C(C(=O)OCC2CCCCC2)C(c2ccc(F)cc2F)CC(=O)N1", "note": "(stereo not given)", "inhibition": "2.59%"}
{"smiles": "Oc1c(C(c2ccccc2)N2CCN(Cc3ccccc3)CC2)sc2nc(-c3ccco3)nn12", "note": "(stereo not given)", "inhibition": "-16.7%"}
{"smiles": "Cc1ccc(CNC(=O)C2CCN(S(=O)(=O)N3CCC(C)CC3)CC2)cc1", "inhibition": "-19.1%"}
{"smiles": "Cc1ccc(OCC(=O)Nc2c(C(=O)c3ccccc3)oc3ccccc23)cc1C", "inhibition": "-0.353%"}
{"smiles": "CCc1ccc(NC(=O)CC2C(=O)N(c3cccc(C)c3)C(=O)N2Cc2cccs2)cc1", "note": "(stereo not given)", "inhibition": "4.65%"}
{"smiles": "Cn1c(Cl)c(/C=N/OC(=O)c2ccc(Cl)cc2)c2ccccc21", "inhibition": "active: 56.1%"}
{"smiles": "COc1cc(C(=O)Nc2ccc3nn(-c4ccc(F)cc4)nc3c2)cc(OC)c1OC", "inhibition": "4.33%"}
{"smiles": "CCCCn1c(=O)n(-c2ccc(Br)cc2F)c(=O)c2c3c(sc21)CN(C(C)=O)CC3", "inhibition": "-11.2%"}
{"smiles": "CCOc1ccccc1NC(=O)CSc1nc2ccccc2c2nc(CCn3cncc3C)nn12", "inhibition": "3.8%"}
{"smiles": "Cc1ccc(NC2=C(c3ccc(C(F)(F)F)cc3)C(=O)c3ccccc32)cc1F", "inhibition": "19.2%"}
{"smiles": "O=C(NCC(c1cccnc1)N1CCc2ccccc21)c1ccccc1Br", "note": "(stereo not given)", "inhibition": "13%"}
{"smiles": "O=C(Cn1c(=O)n(Cc2ccco2)c(=O)c2cccnc21)Nc1ccccc1F", "inhibition": "7.18%"}
{"smiles": "CCCN(CCC)C(=O)Cn1c(=O)n(-c2cccc(C(F)(F)F)c2)c(=O)c2c(C)c(C)sc21", "inhibition": "10.4%"}
{"smiles": "COc1cc2c(-c3ccccc3C)nc3c(c(C)nn3-c3ccccc3)c2cc1OC", "inhibition": "-13.3%"}
{"smiles": "CCOc1cc(C(=O)Nc2ccc(-c3nc4cc(C)ccc4o3)cc2)cc(OCC)c1OCC", "inhibition": "10.2%"}
{"smiles": "O=C(Nc1ccc2nc(SCC(=O)N3CCCC3)sc2c1)c1ccccc1", "inhibition": "-14.5%"}
{"smiles": "COc1ccc(NC(=O)c2ccc3nc(CCc4ccccc4)oc3c2)cc1", "inhibition": "16.5%"}
{"smiles": "CCCCC12CN3CC(C)(CN(C1)C3c1cc(Br)ccc1O)C2=O", "note": "(stereo not given)", "inhibition": "4.88%"}
{"smiles": "CC(=O)c1cc(-c2ccc(F)cc2)n(CCC(=O)NCc2ccccc2C)c1C", "inhibition": "-8.71%"}
{"smiles": "CS(=O)(=O)c1ccc2nc(NC(=O)CS(=O)(=O)c3ccc(Cl)cc3)sc2c1", "inhibition": "-3.14%"}
{"smiles": "CCOC(=O)CNC(=O)Nc1cc(C(=O)NCc2cccc(F)c2)ccc1N1CCCC1", "inhibition": "5.35%"}
{"smiles": "COc1ccccc1N1CCN(C/C(C)=C/c2ccccc2)CC1", "inhibition": "active: 74.1%"}
{"smiles": "Cc1ccc(-c2nc3scc(CCNC(=O)c4cccc(Br)c4)n3n2)cc1", "inhibition": "-7.98%"}
{"smiles": "COc1ccccc1NC(=O)C1CCCN(c2nnc(C)c3c(C)n(-c4ccccc4)nc23)C1", "note": "(stereo not given)", "inhibition": "-9.01%"}
{"smiles": "Cc1ccc(C)n1-c1nnc(N2CCC(C(=O)NCc3ccccc3Cl)CC2)s1", "inhibition": "3.04%"}
{"smiles": "Cc1ccc(-c2nc(CCNC(=O)C(=O)Nc3ccc(C)c(C)c3)cs2)cc1", "inhibition": "7.33%"}
{"smiles": "COc1ccc(OC)c(NC(=O)CCN2CCN(c3ccccc3OC)CC2)c1", "inhibition": "active: 71.9%"}
{"smiles": "Cc1oc(-c2ccccc2F)nc1CN1CCC(C(=O)NCCC2=CCCCC2)CC1", "inhibition": "active: 31.8%"}
{"smiles": "COc1ccc(S(=O)(=O)N(Cc2nc(-c3ccc(C)cc3)no2)C2CCCCC2)cc1", "inhibition": "16.2%"}
{"smiles": "O=C1[C@@H]2CSC(c3ccc(F)cc3)N2C(=O)N1c1ccc(Cl)cc1", "note": "(stereo not given in full)", "inhibition": "-10.9%"}
{"smiles": "COc1ccc(CNC(=O)c2cccc(N3CCCS3(=O)=O)c2)cc1", "inhibition": "-4%"}
{"smiles": "CCc1ccc(-n2c(=O)c3c4c(sc3n(Cc3ccc(F)cc3)c2=O)CCCC4)cc1", "inhibition": "11.6%"}
{"smiles": "Nc1ncc(S(=O)(=O)NCc2cccc(Cl)c2)cn1", "inhibition": "-15.5%"}
{"smiles": "Cc1ccc2oc(=O)c3cnn(CC(=O)NCc4ccccc4Cl)c3c2c1", "inhibition": "-11.9%"}
{"smiles": "CCSC1=N/C(=C\\c2ccc3c(c2)OCO3)C(=O)S1", "inhibition": "active: 30.4%"}
{"smiles": "Cc1ccccc1CNC(=O)c1c(C)oc2c1C1=NCCN1C=N2", "inhibition": "-2.67%"}
{"smiles": "CCc1cc(=O)oc2cc(C)cc(OCC(=O)NC(Cc3c[nH]c4ccc(O)cc34)C(=O)O)c12", "note": "(stereo not given)", "inhibition": "active: 48.3%"}
{"smiles": "C/C(=N\\OCc1cccc(C(=O)O)c1)c1ccc(Cl)cc1", "inhibition": "active: 55.7%"}
{"smiles": "Cc1ccccc1Cn1cc(S(=O)(=O)c2ccc(Cl)cc2)c(=O)c2cc3c(cc21)OCO3", "inhibition": "15.7%"}
{"smiles": "O=c1c(O)c(-c2cccs2)oc2ccc(Cl)cc12", "inhibition": "active: 51.4%"}
{"smiles": "COc1cccc(N2CCN(C(=O)C3CCCN(S(=O)(=O)c4ccc(Br)s4)C3)CC2)c1", "note": "(stereo not given)", "inhibition": "3.25%"}
{"smiles": "Cc1c(NC(=O)c2nc3ccccc3n(C)c2=O)cccc1[N+](=O)[O-]", "inhibition": "4.41%"}
